Reference: the BET-seq Pho4 binding data (Le et al. 2018)
This is one part of the list. These are noisy estimates, calculated here from bound and input reads.

Biological target: T1, Pho4 (S. cerevisiae) (UniProt P07270)
T1 sequence: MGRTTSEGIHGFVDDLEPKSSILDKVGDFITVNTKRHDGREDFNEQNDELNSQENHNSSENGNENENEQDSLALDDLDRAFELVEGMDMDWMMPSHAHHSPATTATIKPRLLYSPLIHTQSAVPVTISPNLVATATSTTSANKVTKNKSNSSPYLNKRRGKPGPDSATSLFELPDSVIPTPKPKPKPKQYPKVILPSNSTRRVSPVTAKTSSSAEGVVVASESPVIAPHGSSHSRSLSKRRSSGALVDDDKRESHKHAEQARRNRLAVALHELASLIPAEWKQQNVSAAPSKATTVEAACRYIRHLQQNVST
Assay: relative binding free energy (BET-seq); higher = weaker binding
Settings: reference: library average

| Sequence | relative binding free energy [kcal/mol] |
| --- | --- |
| TTTATCACGTGCAGGT | 0.29 |
| GCATGCACGTGGGATT | -0.04 |
| TGGATCACGTGACGAG | 0.33 |
| AAGATCACGTGAGTGT | 0.26 |
| GGCTTCACGTGGGTAA | 0.29 |
| GGTTACACGTGTGTTA | 0.08 |
| TTGGTCACGTGTCGGT | 0.25 |
| AGAGTCACGTGTATAG | 0.13 |
| AAGTGCACGTGTTGGC | 0.1 |
| CGGTTCACGTGGTAGG | 0.23 |
| TGGTTCACGTGTCTTT | 0.24 |
| GGGTACACGTGTTTAG | 0.06 |
| AGTTTCACGTGTACTG | 0.22 |
| GTGACCACGTGTGGTT | 0.06 |
| AGGTTCACGTGGAGTT | 0.38 |
| GGGAGCACGTGTCGGT | -0.21 |
| TTAAGCACGTGTATAG | -0.02 |
| ACGTACACGTGTTGGT | 0.11 |
| AGTGCCACGTGTAGTT | 0.03 |
| TGTGGCACGTGGACAA | -0.1 |
| GGCTCCACGTGGATGG | 0.19 |

| Sequence | relative binding free energy [kcal/mol] |
| --- | --- |
| GAGGGCACGTGGGCTT | -0.25 |
| GGTGACACGTGGAGGG | 0.03 |
| GGTAACACGTGAGGGC | 0.11 |
| GATACCACGTGAGGGT | 0.3 |
| GGGGCCACGTGGTGCG | -0.1 |
| GAGTACACGTGATGGT | 0.28 |
| TTGGCCACGTGTGGAA | 0.05 |
| GGGGGCACGTGCAGTT | -0.13 |
| GGATGCACGTGAATAG | 0.29 |
| GTTAACACGTGGTAGA | -0.08 |
| GGAGTCACGTGTCGGC | 0.26 |
| TGTTTCACGTGTGGAC | 0.29 |
| CTAGTCACGTGTTAAG | 0.09 |
| ATCGACACGTGGGGGA | -0.06 |
| TTCTGCACGTGAATGG | 0.28 |
| TGTAGCACGTGTTATC | -0.04 |
| TTGGTCACGTGGTTTT | 0.21 |
| GGTAGCACGTGAGACG | 0.19 |
| TTCTGCACGTGTTAGT | 0.09 |
| TAGATCACGTGGGGAG | 0.01 |
| TGCGGCACGTGGACGG | 0.04 |

| Sequence | relative binding free energy [kcal/mol] |
| --- | --- |
| AAAGGCACGTGTGCGT | -0.1 |
| GCGGTCACGTGGGAAT | 0.09 |
| GGGCTCACGTGGTGGA | 0.34 |
| TCATTCACGTGTGATT | 0.27 |
| AGGATCACGTGGCAGG | 0.2 |
| TTGCGCACGTGATGGT | -0.06 |
| TGAGACACGTGCGGTT | 0.14 |
| TCAAGCACGTGGCTGG | -0.07 |
| AGAGGCACGTGGGCGT | -0.18 |
| TAGGTCACGTGAAAAT | 0.26 |
| TCGGTCACGTGTACGT | 0.1 |
| GTTTGCACGTGATGAA | 0.15 |
| GGCGGCACGTGTGGCA | -0.07 |
| CTGTCCACGTGATGGG | 0.14 |
| TTGTACACGTGTATTT | 0.17 |
| GGTGGCACGTGGAGTC | -0.08 |
| GTGGACACGTGCGGAT | 0.11 |
| GTAGGCACGTGGGTGG | -0.21 |
| TTTCGCACGTGAATTG | 0.24 |
| TTTTGCACGTGCTAGC | 0.07 |
| AAAGTCACGTGTGGTG | 0.19 |
